This is an account of results in PubChem BioAssay AID1240 (Sanford-Burnham Center for Chemical Genomics, 2008).

Among all 50,000 compounds or so, about 800 (1.6%) showed an effect of 50% or more. The list shows a part of the results.

The experiment concerns the target Bcl-2-like protein 10 (Homo sapiens) (UniProt Q9HD36). Kind of experiment: TR3 peptide-Bcl-B binding displacers, biochemical primary FP assay, phenotype converters (AID 1240).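 Further: 0% = Bcl-B with tracer peptide and DMSO and 100% = tracer peptide lacking Bcl-B.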 The conditions noted are these: GST-Bcl-B / FITC-TR3 peptide fluorescence polarization; stronger effect = higher value; compound at 3.75 mg/L. On the technique in general: Polarisation of emitted light reports the rotation of a fluorescent probe.
Sequence of UniProt Q9HD36 (Q9HD36 whole entry, looked up): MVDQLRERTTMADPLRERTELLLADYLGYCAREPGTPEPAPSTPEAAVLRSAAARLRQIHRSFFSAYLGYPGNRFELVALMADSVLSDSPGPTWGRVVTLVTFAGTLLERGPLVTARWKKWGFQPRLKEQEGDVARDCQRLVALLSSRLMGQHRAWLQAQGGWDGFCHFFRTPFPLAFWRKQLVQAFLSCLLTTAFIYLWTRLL
`CCCCCOC(=O)C1=C(C)NC2=C(C(=O)CCC2)C1c1ccc(OC)c(Br)c1` (centres undefined): the displacement worked out at 8.9%.

Regarding `COc1ccc(S(=O)(=O)N(CC(=O)O)Cc2ccccc2)cc1`, the displacement came to 7.8%.

As to `COc1cc(NC(=O)COc2ccc(C)c(C)c2)c(OC)cc1Cl`, the displacement is 0.4%.

With `COc1ccc(/C=C2\SC(=S)N(C(C)C(=O)O)C2=O)cc1` (centres undefined), the displacement is -0.2%.

In the case of `CCCC(=O)Nc1ccc(NC(=O)c2ccc(OC)c(Br)c2)cc1`, the displacement came to 0.9%.

Consider `Oc1ccccc1C1=NCCNC(C(F)(F)F)=C1`, for which the displacement was found to be 10.6%.

Turning to `NC(=O)c1cccc(S(=O)(=O)N2CCOCC2)c1`, the displacement was -4.7%.

Consider `COC(=O)c1ccc(-c2ccc(/C=C3\C(=O)NN(c4ccccc4)C3=O)o2)cc1`, for which the displacement was 3.5%.

Regarding `Cc1cccc(NC(=O)c2ccccc2N)c1C`, the displacement was -9.2%.

`CCn1c2ccccc2c2cc(C3C(C(=O)OC)=C(C)NC4=C3C(=O)CCC4)ccc21` (centres undefined): the displacement came out at 1.8%.

As for `Cc1cc(NC(=O)CCc2ccccc2)ccc1NC(=O)CCc1ccccc1`, the displacement was found to be 3.4%.

Regarding `COc1ccc(OC)c(NC(=O)CN(c2cc(Cl)cc(Cl)c2)S(C)(=O)=O)c1`, the displacement is -2.6%.

For `Cc1cc2nc(-c3ccc(C)c(NC(=O)COc4ccc([N+](=O)[O-])cc4)c3)oc2cc1C`, the displacement is -54.1%.

Consider `COc1ccc(-c2ccc(/C=C/C(=O)c3ccc(C)cc3)o2)cc1`, for which the displacement turned out to be 91.1%.

As for `COc1cc(/C=C2/SC(=S)N(C)C2=O)ccc1OC(=O)c1cccs1`, the displacement is 14.9%.

`COc1ccc(C(=O)N2CCN(Cc3cc(OC)c(OC)c(OC)c3)CC2)cc1OC`: the displacement was -11.9%.

As to `CC1=C(C(=O)Nc2ccccc2)C(c2ccc(C)cc2)NC(=O)N1` (centres undefined), the displacement was -1%.

In the case of `c1ccc(-c2ccc(-c3nc(-c4ccccc4)no3)cc2)cc1`, the displacement is -5.4%.

Take `COc1cc(C=O)c(Br)cc1OCc1ccc(Cl)cc1`: the displacement was 1.9%.

Consider `O=S(=O)([O-])C/C(=C\c1ccc(Cl)cc1)c1cc[n+](CCO)cc1`, for which the displacement was 3.9%.

For the compound `COc1cc(/C=N\NC(=O)c2cccc(Cl)c2)ccc1OCCOCCOc1ccc(C)cc1`, the displacement was -7.7%.

Regarding `O=C(O)/C=C\C(=O)N(c1ccccc1)c1ccc2ccccc2c1`, the displacement is 10.5%.

Regarding `O=C(CCCN1CCN2CCCCCC2C1)c1ccc(F)cc1` (centres undefined), the displacement was -1.3%.

Consider `COC(=O)c1cc(NC(=O)/C=C/c2ccccc2Cl)cc(C(=O)OC)c1`, for which the displacement is -2.1%.

For the compound `COc1ccc(OC)c(C2/C(=C(\O)c3ccccc3)C(=O)C(=O)N2CCCCCC(=O)O)c1` (centres undefined), the displacement is 3.4%.

For the compound `CCc1ccccc1N/C(N)=N\c1nc(C)cc(C)n1`, the displacement was -4.5%.

Consider `COCCN1C(=O)/C(=C/c2cccc3ccccc23)SC1=S`, for which the displacement stood at 6.1%.

On to `CC1=C(C(=O)OC2CCCC2)C(c2ccccc2[N+](=O)[O-])C2=C(CC(C)(C)CC2=O)N1` (centres undefined), for which the displacement was -6.2%.

With `Cc1cccc(C(=O)O/N=C(\N)Cc2ccc([N+](=O)[O-])cc2)c1`, the displacement was -11.2%.

With `CCOc1cccc(/C=N/N2CCN(Cc3cccc4ccccc34)CC2)c1O`, the displacement was -8.1%.

Consider `Clc1cccc(-c2ccc(/C=N/n3cnnc3)o2)c1`, for which the displacement is 5.2%.

Regarding `COc1ccc(C2Nc3ccccc3NC3=C2C(=O)CC(c2ccc(Cl)cc2)C3)cc1` (centres undefined), the displacement was -7%.

In the case of `O=C(/C=C\c1ccco1)c1ccc(-n2nncc2C23CC4CC(CC(C4)C2)C3)cc1`, the displacement is -20.1%.

As to `CCOc1ccc(N/C(=N\S(=O)(=O)c2ccc(NC(C)=O)cc2)Nc2nc(C)cc(C)n2)cc1`, the displacement is -5.8%.

Consider `COC(=O)c1c(-c2ccc(C(C)(C)C)cc2)csc1N`, for which the displacement came out at 5.7%.

As for `COc1ccc(NC(=O)CCC(C(C)=O)[N+](=O)[O-])cc1` (centres undefined), the displacement is -4.2%.

Regarding `COc1ccccc1C(=O)N1CCN(c2ccc(F)cc2)CC1`, the displacement is -13.4%.

As to `CC(=O)Nc1ccc(S(=O)(=O)Nc2cccc(C(=O)Nc3ccccc3C(=O)O)c2)cc1`, the displacement is -15.8%.

For the compound `COc1ccccc1N1C(=O)C2C(C1=O)C2(c1ccccc1)c1ccccc1` (centres undefined), the displacement was -5.5%.

Regarding `O=c1[nH]c(=S)n(-c2cccc(Cl)c2)c(O)c1/C=C1/C=CC=N1`, the displacement turned out to be 45.4%.

For `O=C1C(Nc2ccccc2)=CC(c2ccc(F)cc2)N1c1ccccc1` (centres undefined), the displacement was 0.4%.

As for `Fc1cnc(Nc2ccccc2)nc1Nc1ccccc1`, the displacement amounted to 2.7%.

On to `CC1=C(C(=O)OCc2ccccc2)C(c2cccc(Cl)c2)C2=C(CCCC2=O)N1` (centres undefined), for which the displacement was 5.9%.

With `CN(C)c1ccc(NC(=O)c2cc(-c3ccccc3Cl)nc3ccccc23)cc1`, the displacement was -0.2%.

Take `CCCOc1ccc(/C=N/N2CCN(Cc3ccc(C)cc3)CC2)cc1`: the displacement amounted to 6.6%.

Consider `COc1ccc(NC(=O)C(=O)N/N=C/c2cccc(OC)c2OC)cc1`, for which the displacement is 2.5%.

Regarding `COc1cc(NC(=O)c2ccco2)cc(OC)c1`, the displacement stood at 4.7%.

As to `CCCC(=O)c1ccc(N2CCOCC2)c(F)c1`, the displacement is 1.8%.

`CCN(CC)CCN1C(=O)C(O)=C(C(=O)/C=C/c2ccccc2)C1c1ccccc1` (centres undefined): the displacement was -14.1%.

On to `Cc1ccc(/C=C(\C#N)c2nc(-c3cc4cc(Br)ccc4oc3=O)cs2)o1`, for which the displacement was -5%.

Take `CNC(=S)N(C)/N=C(C)\C=N\N(C)C(=S)NC`: the displacement was -1.9%.

For the compound `CC(NC(=O)C12CC3(C)CC(C)(CC(C)(C3)C1)C2)C(=O)Nc1ccc(F)cc1F` (centres undefined), the displacement is -10%.

On to `CCOC(=O)c1c(NC(=S)Nc2ccc(OC)cc2)sc2c1CCC2`, for which the displacement worked out at 10%.

Consider `CCOC(=O)C1=C(C)N=c2s/c(=C\c3cc(Cl)c(O)c(OC)c3)c(=O)n2C1c1ccccc1` (centres undefined), for which the displacement was -44.5%.

In the case of `c1ccc2c(OCCCN3CCOCC3)cccc2c1`, the displacement was 2.6%.

`CCOc1cc(/C=N/n2nnnc2N)ccc1OCc1c(C)no[n+]1[O-]`: the displacement is -4.5%.

Turning to `CCOC(=O)C1C(=O)NCC2CCCC21` (centres undefined), the displacement amounted to 4.6%.

On to `COC(=O)CN(c1ccc(OC)cc1)S(=O)(=O)c1ccc(C)cc1`, for which the displacement worked out at 1.2%.

`CSCCC(NC(=O)/C(=C\c1ccccc1)NC(=O)c1ccco1)C(=O)O` (centres undefined): the displacement was -7.2%.

With `O=C(Nc1cc(Cl)ccc1C(=O)O)c1cccs1`, the displacement was found to be 2%.

`Cc1cccc(-c2noc(C(c3ccccc3)c3ccccc3)n2)c1`: the displacement stood at 11.9%.

With `CCOc1cccc(C(=O)Nc2nc(-c3ccc(CC)cc3)cs2)c1`, the displacement is -5.5%.

For `COC(=O)C1=C(C)NC(=S)NC1c1ccc(C(C)C)cc1` (centres undefined), the displacement amounted to 6.3%.

Take `N#C/C(=C\C=C\c1ccccc1)C(=O)NCC1CCCO1` (centres undefined): the displacement is 0.4%.

Turning to `CCN(C(=O)N1CCOCC1)c1ccccc1`, the displacement is -8.6%.

For `CC1=C(C(=O)Nc2ccc(C)cc2)C(c2ccc(C)cc2)NC(=S)N1` (centres undefined), the displacement was 1.4%.

For `O=C1c2ccccc2C(=O)c2c(C#Cc3ccccc3)cccc21`, the displacement is 10.5%.

For the compound `O=C(Nc1cc(Cl)ccc1O)c1cnn2c(C(F)(F)F)cc(-c3cccs3)nc12`, the displacement was 3.7%.

Regarding `O=C(O)c1ccc(/C=N/Nc2nncc(=O)[nH]2)cc1`, the displacement is -10.2%.
